This is an account of results in article PMC7430671.

Amino acid sequences for entries named in this document (tags omitted).
UniProt P21513: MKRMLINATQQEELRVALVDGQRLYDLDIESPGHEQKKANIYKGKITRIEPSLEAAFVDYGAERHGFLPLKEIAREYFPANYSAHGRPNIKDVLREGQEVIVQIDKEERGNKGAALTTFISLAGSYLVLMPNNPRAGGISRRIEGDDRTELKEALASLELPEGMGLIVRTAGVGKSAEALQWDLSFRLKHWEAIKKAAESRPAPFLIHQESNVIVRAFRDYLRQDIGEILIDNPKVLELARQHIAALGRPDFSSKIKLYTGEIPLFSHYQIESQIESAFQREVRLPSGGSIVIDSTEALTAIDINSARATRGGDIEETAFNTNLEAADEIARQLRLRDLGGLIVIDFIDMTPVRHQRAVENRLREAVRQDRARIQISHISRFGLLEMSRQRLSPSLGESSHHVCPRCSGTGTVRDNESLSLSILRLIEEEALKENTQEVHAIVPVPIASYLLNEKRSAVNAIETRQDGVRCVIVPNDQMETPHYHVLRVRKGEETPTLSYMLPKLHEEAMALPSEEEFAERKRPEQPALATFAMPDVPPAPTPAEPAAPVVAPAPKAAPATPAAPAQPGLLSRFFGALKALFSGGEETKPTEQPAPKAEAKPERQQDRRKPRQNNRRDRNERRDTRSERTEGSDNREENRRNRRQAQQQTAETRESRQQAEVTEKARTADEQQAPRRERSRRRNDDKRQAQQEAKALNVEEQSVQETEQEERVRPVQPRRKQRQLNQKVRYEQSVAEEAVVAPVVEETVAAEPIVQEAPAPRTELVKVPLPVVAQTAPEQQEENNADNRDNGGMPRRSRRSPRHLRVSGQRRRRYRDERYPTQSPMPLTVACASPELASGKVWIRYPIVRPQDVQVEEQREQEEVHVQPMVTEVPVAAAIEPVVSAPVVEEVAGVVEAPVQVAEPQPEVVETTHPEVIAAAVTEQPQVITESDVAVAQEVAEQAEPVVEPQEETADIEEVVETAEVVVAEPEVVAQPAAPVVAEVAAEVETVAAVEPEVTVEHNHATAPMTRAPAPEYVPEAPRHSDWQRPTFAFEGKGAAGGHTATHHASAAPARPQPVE

These are yes or no findings as the source states them, for the method shown. Some binding calls cover weakened binding; strength is not graded here. Tags and fused reporters may be left off the sequences shown.

Experiment [1] concerns the target full-length RNase E (RneFL), BACTH fusion (E. coli) (UniProt P21513). Nature of the experiment: two-hybrid; BACTH in E. coli BTH101: RapZ variant fused to T25, RNase E (full length) fused to T18; β-galactosidase activity of cells grown to stationary phase at 28°C.
Experiment [2] shares this target. Nature of the experiment: two-hybrid; BACTH in E. coli BTH101: RapZ variant fused to T18, RNase E variant fused to T25; β-galactosidase activity of cells grown to stationary phase at 28°C.
Experiment [3] concerns the target RapZ_(1–277), BACTH fusion (E. coli) (UniProt P0A894). Nature of the experiment: two-hybrid; BACTH in E. coli BTH101, self-interaction: the same RapZ variant fused to T18 and to T25; β-galactosidase activity of cells grown to stationary phase at 28°C.
Experiment [4] has as its target RapZ variant lacking 5 residues from the amino terminus, BACTH fusion (E. coli) (UniProt P0A894). Described as above.
The target in experiment [5] is RapZ_(1–278), BACTH fusion (E. coli) (UniProt P0A894). Described as above.
Experiment [6] addresses RapZ variant lacking 10 residues from the amino terminus, BACTH fusion (E. coli) (UniProt P0A894). The description is as above.
Experiment [7] has as its target RapZ variant lacking 10 residues from the carboxyl terminus, BACTH fusion (E. coli) (UniProt P0A894). The experiment is described as above.
Experiment [8] has as its target RapZ_(1–279), BACTH fusion (E. coli) (UniProt P0A894). The description is as above.
The target in experiment [9] is RapZ_(1–279) with Thr278 substituted by glycine, BACTH fusion (E. coli) (UniProt P0A894). The experiment is described as above.
In experiment [10] the target is RapZ_(1–279) Leu279Gly, BACTH fusion (E. coli) (UniProt P0A894). The description is as above.

B1: RapZNTD, BACTH fusion (domain or fragment, UniProt P0A894 1-152)
chain: MVLMIVSGRSGSGKSVALRALEDMGFYCVDNLPVVLLPDLARTLADREISAAVSIDVRNMPESPEIFEQAMSNLPDAFSPQLLFLDADRNTLIRRYSDTRRLHPLSSKNLSLESAIDKESDLLEPLRSRADLIVDTSEMSVHELAEMLRTRL
As for B1, the binding result in experiment [1] and in experiment [2] was “no binding” each time.

B2: RapZ_(1–277), BACTH fusion (domain or fragment, UniProt P0A894 1-277)
chain: MVLMIVSGRSGSGKSVALRALEDMGFYCVDNLPVVLLPDLARTLADREISAAVSIDVRNMPESPEIFEQAMSNLPDAFSPQLLFLDADRNTLIRRYSDTRRLHPLSSKNLSLESAIDKESDLLEPLRSRADLIVDTSEMSVHELAEMLRTRLLGKRERELTMVFESFGFKHGIPIDADYVFDVRFLPNPHWDPKLRPMTGLDKPVAAFLDRHTEVHNFIYQTRSYLELWLPMLETNNRSYLTVAIGCTGGKHRSVYIAEQLADYFRSRGKNVQSRHR
Regarding B2, the binding entry in [3] was “binds”; in [2] it was “no binding”.

B3: RapZ variant lacking 5 residues from the amino terminus, BACTH fusion (domain or fragment, UniProt P0A894 6-284)
chain: VSGRSGSGKSVALRALEDMGFYCVDNLPVVLLPDLARTLADREISAAVSIDVRNMPESPEIFEQAMSNLPDAFSPQLLFLDADRNTLIRRYSDTRRLHPLSSKNLSLESAIDKESDLLEPLRSRADLIVDTSEMSVHELAEMLRTRLLGKRERELTMVFESFGFKHGIPIDADYVFDVRFLPNPHWDPKLRPMTGLDKPVAAFLDRHTEVHNFIYQTRSYLELWLPMLETNNRSYLTVAIGCTGGKHRSVYIAEQLADYFRSRGKNVQSRHRTLEKRKP
In the case of B3, the binding result in [4] and in experiment [2] was “no binding” each time.

B4: RapZ_(1–278), BACTH fusion (domain or fragment, UniProt P0A894 1-278)
chain: MVLMIVSGRSGSGKSVALRALEDMGFYCVDNLPVVLLPDLARTLADREISAAVSIDVRNMPESPEIFEQAMSNLPDAFSPQLLFLDADRNTLIRRYSDTRRLHPLSSKNLSLESAIDKESDLLEPLRSRADLIVDTSEMSVHELAEMLRTRLLGKRERELTMVFESFGFKHGIPIDADYVFDVRFLPNPHWDPKLRPMTGLDKPVAAFLDRHTEVHNFIYQTRSYLELWLPMLETNNRSYLTVAIGCTGGKHRSVYIAEQLADYFRSRGKNVQSRHRT
For B4, in [5], the binding entry was “binds”.

B5: RapZ variant lacking 10 residues from the amino terminus, BACTH fusion (domain or fragment, UniProt P0A894 11-284)
chain: GSGKSVALRALEDMGFYCVDNLPVVLLPDLARTLADREISAAVSIDVRNMPESPEIFEQAMSNLPDAFSPQLLFLDADRNTLIRRYSDTRRLHPLSSKNLSLESAIDKESDLLEPLRSRADLIVDTSEMSVHELAEMLRTRLLGKRERELTMVFESFGFKHGIPIDADYVFDVRFLPNPHWDPKLRPMTGLDKPVAAFLDRHTEVHNFIYQTRSYLELWLPMLETNNRSYLTVAIGCTGGKHRSVYIAEQLADYFRSRGKNVQSRHRTLEKRKP
With B5, the binding entry in experiment [6] and in [2] was “no binding” each time.

B6: RapZ variant lacking 10 residues from the carboxyl terminus, BACTH fusion (domain or fragment, UniProt P0A894 1-274)
chain: MVLMIVSGRSGSGKSVALRALEDMGFYCVDNLPVVLLPDLARTLADREISAAVSIDVRNMPESPEIFEQAMSNLPDAFSPQLLFLDADRNTLIRRYSDTRRLHPLSSKNLSLESAIDKESDLLEPLRSRADLIVDTSEMSVHELAEMLRTRLLGKRERELTMVFESFGFKHGIPIDADYVFDVRFLPNPHWDPKLRPMTGLDKPVAAFLDRHTEVHNFIYQTRSYLELWLPMLETNNRSYLTVAIGCTGGKHRSVYIAEQLADYFRSRGKNVQS
With B6, the binding entry in [7] and in [2] was “no binding” throughout.

B7: RapZCTD, BACTH fusion (domain or fragment, UniProt P0A894 153-284)
chain: LGKRERELTMVFESFGFKHGIPIDADYVFDVRFLPNPHWDPKLRPMTGLDKPVAAFLDRHTEVHNFIYQTRSYLELWLPMLETNNRSYLTVAIGCTGGKHRSVYIAEQLADYFRSRGKNVQSRHRTLEKRKP
Consider B7, for which the binding result in [1] and in [2] was “no binding” throughout.

B8: RapZ_(1–279), BACTH fusion (domain or fragment, UniProt P0A894 1-279)
chain: MVLMIVSGRSGSGKSVALRALEDMGFYCVDNLPVVLLPDLARTLADREISAAVSIDVRNMPESPEIFEQAMSNLPDAFSPQLLFLDADRNTLIRRYSDTRRLHPLSSKNLSLESAIDKESDLLEPLRSRADLIVDTSEMSVHELAEMLRTRLLGKRERELTMVFESFGFKHGIPIDADYVFDVRFLPNPHWDPKLRPMTGLDKPVAAFLDRHTEVHNFIYQTRSYLELWLPMLETNNRSYLTVAIGCTGGKHRSVYIAEQLADYFRSRGKNVQSRHRTL
Take B8: the binding result in experiment [8] and in [2] was “binds” throughout.

B9: RapZ_(1–279) with Thr278 substituted by glycine, BACTH fusion (domain or fragment, UniProt P0A894 1-279)
chain: MVLMIVSGRSGSGKSVALRALEDMGFYCVDNLPVVLLPDLARTLADREISAAVSIDVRNMPESPEIFEQAMSNLPDAFSPQLLFLDADRNTLIRRYSDTRRLHPLSSKNLSLESAIDKESDLLEPLRSRADLIVDTSEMSVHELAEMLRTRLLGKRERELTMVFESFGFKHGIPIDADYVFDVRFLPNPHWDPKLRPMTGLDKPVAAFLDRHTEVHNFIYQTRSYLELWLPMLETNNRSYLTVAIGCTGGKHRSVYIAEQLADYFRSRGKNVQSRHRGL
Turning to B9, the binding result in [9] and in [2] was “binds” each time.

B10: RapZ_(1–279) Leu279Gly, BACTH fusion (domain or fragment, UniProt P0A894 1-279)
chain: MVLMIVSGRSGSGKSVALRALEDMGFYCVDNLPVVLLPDLARTLADREISAAVSIDVRNMPESPEIFEQAMSNLPDAFSPQLLFLDADRNTLIRRYSDTRRLHPLSSKNLSLESAIDKESDLLEPLRSRADLIVDTSEMSVHELAEMLRTRLLGKRERELTMVFESFGFKHGIPIDADYVFDVRFLPNPHWDPKLRPMTGLDKPVAAFLDRHTEVHNFIYQTRSYLELWLPMLETNNRSYLTVAIGCTGGKHRSVYIAEQLADYFRSRGKNVQSRHRTG
As for B10, the figures for the binding result in experiment [10] and in [2] were “binds” and “no binding”, respectively.
